Source: paper PMC4336329 (PLoS ONE, 2015)
Out of some 310,000 compounds screened, about 2,200 (0.71%) showed an effect of 50% or more. Effects have a minus sign here. Some of the results follow.

target: human ether-à-go-go-related gene (hERG) potassium channel (human, UniProt Q12809); assay: primary screen, population patch clamp on CHO cells stably expressing hERG
Sequence (Q12809 whole entry, looked up): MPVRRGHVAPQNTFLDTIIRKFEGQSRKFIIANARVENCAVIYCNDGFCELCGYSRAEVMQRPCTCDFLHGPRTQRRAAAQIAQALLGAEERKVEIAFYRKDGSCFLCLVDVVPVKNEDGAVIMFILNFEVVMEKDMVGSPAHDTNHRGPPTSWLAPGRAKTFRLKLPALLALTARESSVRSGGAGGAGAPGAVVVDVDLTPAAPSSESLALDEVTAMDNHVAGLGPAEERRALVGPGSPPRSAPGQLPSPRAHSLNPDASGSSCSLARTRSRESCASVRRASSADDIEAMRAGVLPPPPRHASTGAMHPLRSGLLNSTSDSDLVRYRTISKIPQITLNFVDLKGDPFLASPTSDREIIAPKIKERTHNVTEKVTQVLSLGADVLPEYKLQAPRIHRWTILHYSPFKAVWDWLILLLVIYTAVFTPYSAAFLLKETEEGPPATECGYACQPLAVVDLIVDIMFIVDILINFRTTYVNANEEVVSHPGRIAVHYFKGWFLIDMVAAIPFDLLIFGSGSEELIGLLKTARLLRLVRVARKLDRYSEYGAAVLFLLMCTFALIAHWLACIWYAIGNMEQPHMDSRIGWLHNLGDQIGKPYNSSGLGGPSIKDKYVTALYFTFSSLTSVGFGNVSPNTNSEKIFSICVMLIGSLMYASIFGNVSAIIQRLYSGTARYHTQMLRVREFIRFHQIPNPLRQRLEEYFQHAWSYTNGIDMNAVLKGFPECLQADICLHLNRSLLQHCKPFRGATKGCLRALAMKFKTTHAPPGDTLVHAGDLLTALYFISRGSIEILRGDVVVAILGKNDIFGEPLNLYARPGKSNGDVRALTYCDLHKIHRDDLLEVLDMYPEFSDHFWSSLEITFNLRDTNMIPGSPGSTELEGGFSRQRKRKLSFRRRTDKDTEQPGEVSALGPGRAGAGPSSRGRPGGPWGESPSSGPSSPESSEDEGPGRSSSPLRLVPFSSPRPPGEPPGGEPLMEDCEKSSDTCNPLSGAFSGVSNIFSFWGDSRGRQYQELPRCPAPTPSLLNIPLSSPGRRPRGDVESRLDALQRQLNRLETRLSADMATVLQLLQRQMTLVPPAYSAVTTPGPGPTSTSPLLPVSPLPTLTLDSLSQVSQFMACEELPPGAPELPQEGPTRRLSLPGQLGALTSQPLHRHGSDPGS

| Compound | hERG current change (%, negative = inhibition) at 1uM |
| --- | --- |
| CCOC(=O)C(C)Sc1nc2c(c(=O)[nH]c(=O)n2C)n1Cc1ccc(Cl)cc1 (stereo not drawn) | -78.7% |
| Cc1nn(C2CCOC(C)(C)C2)c2c1C(c1ccc3c(c1)OCO3)SCC(=O)N2 (stereo not drawn) | 7.51% |
| Cc1cc2c(nc1C)CCCN2C[C@@H](C)O/N=C1/[C@H]2CCn3c(=O)n(-c4ccccc4)c(=O)n3[C@H]2[C@H](O)[C@@H]2O[C@H]12 | -10.3% |
| O=C1C2CC=C(Cl)CC2C(=O)N1CC1OCCc2ccccc21 (stereo not drawn) | 1.88% |
| COC(=O)CC1C(=O)NCCN1C(=O)OC(C)(C)C (stereo not drawn) | 9.84% |
| C#CCOCCOCCOCCNc1nc(N2CCN(C(=O)C([C@@H](C)CC)n3cc(C(N)CC(C)C)nn3)CC2)nc(N2CCN(C(=O)[C@H](CCC(=O)O)n3cc(C(N)CC(C)C)nn3)CC2)n1.Cl (stereo partly drawn) | 14.6% |
| Nc1ccn(CC(=O)NCCCc2ccccc2)c(=O)n1 | 14.2% |
| CCCc1nnc(NC(=O)CCC(=O)N2CCC(C)CC2)s1 | 8.62% |
| O=C(CN1CCN(S(=O)(=O)c2ccc(Br)cc2)CC1)Nc1ccc2c(c1)OCCO2 | 7.24% |
| O=C(CSC(=S)N1CCCC1)NCC(=O)Nc1ccccc1Br | 1.4% |
| CC(C)C(=O)Nc1ccc2c(c1)C(=O)NC2=O | 13.9% |
| CCOC(=O)c1c(-c2ccccc2)oc2cc(CN(C)C)c(O)c(CN(C)C)c12 | -22.8% |
| COc1ccccc1CN1CCCC(C(=O)c2ccccc2OC)C1 (stereo not drawn) | -4.58% |
| O=C(COc1ccc(Cl)cc1Cl)N/N=C/C1CC=CCC1 (stereo not drawn) | 5.6% |
| O=C1CCC/C1=C/Nc1ccc(Cl)cc1 | -9.18% |
| COc1ccc(CCN2C(=O)C3C(C2=O)C2C=CC3C23CC3)cc1OC (stereo not drawn) | -1.71% |
| Cc1cccc(-n2ncc(C(=O)NC3CCCC3)c2C2CCN(C(=O)OC(C)(C)C)CC2)c1 | 4.55% |
| Cc1noc(C)c1COC(=O)CNC(=O)c1ccc(Cl)cc1 | -2.81% |
| CCn1c2ccccc2c2nnc(SCC(=O)Nc3c(C)n(C)n(-c4ccccc4)c3=O)nc21 | 10.6% |
| CCCn1cnc2scc(-c3ccc(C)c(C)c3)c2c1=O | 7.31% |
| CC(NC(=O)COC(=O)c1ccc(OCC2CCCO2)cc1)c1ccccc1Cl (stereo not drawn) | 19.5% |
| O=C1CSC(c2ccccn2)N1c1ccc(F)cc1F (stereo not drawn) | 3.3% |

| Compound | hERG current change (%, negative = inhibition) at 1uM |
| --- | --- |
| O=C(CN(Cc1ccccc1Cl)S(=O)(=O)c1ccc(Cl)cc1)N/N=C/c1ccc(C(=O)O)cc1 | 16.1% |
| COc1ccc(S(=O)(=O)N2CCN(C(=O)NC3CCCCC3)CC2)cc1 | 4.33% |
| Cc1ccc(N(CC(=O)NCc2ccccc2)C(=O)c2csnn2)c(C)c1 | 22.4% |
| CC(=O)N(c1ccc(C(F)(F)F)cc1)S(=O)(=O)c1ccc(N2C(=O)CCC2=O)cc1 | 6.55% |
| O=C(NC1CCCC1)c1ncn[nH]1 | 9.28% |
| COc1cc(C(=O)NCCC(=O)NCCCN2CCCCC2C)cc(OC)c1OC (stereo not drawn) | 3.78% |
| O=C(O)/C(=C\c1ccccc1Cl)c1ccc(S(=O)(=O)N2CCCCC2)s1 | 11.2% |
| CCCCOc1ccccc1C1NC(=O)NC(C)=C1C(=O)OCCOCC (stereo not drawn) | 6.66% |
| Cc1cccc(C)c1NC(=O)CNC(=O)CCCN1C(=O)c2cccc3cccc(c23)C1=O | 25.5% |
| CC1CN(Cc2nc3c(c(=O)[nH]c(=O)n3C)n2CC(N)=O)CC(C)O1 (stereo not drawn) | 3.32% |
| COc1ccc(Nc2nc(C)cc(C)c2C#N)cc1OC | 10.3% |
| COc1ccc(/C=N/NC(=O)c2nonc2N)cc1OC | 14.6% |
| CC(C)C(=O)NNC(=O)C1CC1(c1ccccc1)c1ccccc1 (stereo not drawn) | 13.6% |
| Cc1ccc(SCCC(=O)N2CCC(C(N)=O)CC2)cc1 | 4.72% |
| CCOC(=O)C1CCCN(C(=O)c2csc(-c3ccc4c(c3)CCO4)n2)C1 (stereo not drawn) | 5.33% |
| COc1ccccc1CNc1nc(=S)[nH]c2cc(OC)c(OC)cc12 | 14.5% |
| [O-]C1=N/[N+](=C/c2ccc(Cl)c(Cl)c2)CC1 | 16.9% |
| COc1ccc(C(=O)NC(CCSC)C(=O)N2CCCCCC2)cc1 (stereo not drawn) | 2.69% |
| O=C(NN=C1CCCCCCC1)C(=O)NC1CCCCC1 | 4.04% |
| CCOC(=O)c1[nH]c(=O)c2ccccc2c1O | 3.27% |
| O=c1c2ccccc2cnn1Cc1n[nH]c(=S)n1-c1ccccc1Cl | 14.9% |
| COc1ccc(CNC(=O)c2csc(Cc3ccc(Cl)cc3)n2)cc1 | 3.73% |

| Compound | hERG current change (%, negative = inhibition) at 1uM |
| --- | --- |
| Cc1n[nH]c(C)c1CCNC(=O)C1CCC(=O)N(Cc2ccccc2F)C1 (stereo not drawn) | 18.6% |
| CCN(CC)C(=O)c1ccccc1NC(=O)c1ccccc1 | 6.47% |
| COCC1CCN(Cc2nc(-c3ccc(OC)cc3)no2)CC1 | 10.1% |
| COc1ccc(NCC(=O)N/N=C/c2c(C)nn(Cc3ccccc3)c2Cl)cc1 | 6.64% |
| CCSc1nnc(NC(=O)Cc2cc(OC)c(OC)c(OC)c2)s1 | -7.45% |
| CC(C)[C@H](NC(=O)c1ccco1)C(=O)OCC(=O)Nc1ccccc1OC(F)F | 12.3% |
| COc1cc(/C=N/NC(N)=O)ccc1OCC(=O)Nc1ccc(C)c(C)c1 | 3.17% |
| Cc1ccccc1NC(=S)NC(C)C(c1ccccc1)N1CCN(C)CC1 (stereo not drawn) | 2.12% |
| COc1cccc(Cn2c(=S)[nH]c3ccc(N4CCOCC4)cc3c2=O)c1 | -3.31% |
| COc1ccc(-c2cnc(NCc3cc4c(cc3[N+](=O)[O-])OCO4)n2C)cc1 | -10.3% |
| O=C(CNC(=O)c1cccc(F)c1)OCc1cc(=O)n2cc(Br)ccc2n1 | 15% |
| COc1ccc(-c2cn(-c3ccc(C)c(Cl)c3)c(=S)[nH]2)cc1OC | 15% |
| CC(C)CNC(=O)C(=O)NN=C1CCCCCC1 | 10.1% |
| O=C(CSc1nc2ccccc2c(=O)n1-c1ccccc1)N1CCN(CCO)CC1 | 18.5% |
| Cc1ccc(NC(=O)CN(C)C(=O)Cn2cc(C(F)(F)F)ccc2=O)cc1 | 0.887% |
| COC(=O)N1[C@H](Cc2ccccc2)C=C[C@]1(C)C(=O)NCc1ccccn1 | 13.8% |
| Cn1c(=O)n(C)c2cc(S(=O)(=O)NCC(=O)O)ccc21 | 4.84% |
| Cc1ccc(NS(=O)(=O)c2cccc(C(=O)O)c2)c(C)c1 | 14.3% |
| O=C(NCc1ccc(N2CCCC2=O)cc1)c1cnccn1 | 24.9% |
| COc1ccc(-c2nn(-c3ccccc3)cc2C(=O)Nc2nccs2)cc1 | -10.2% |
| COc1cc(Cl)ccc1OCc1cc(C(=O)N2C[C@]3(C)C[C@H]2CC(C)(C)C3)no1 | 1.34% |
| CCC1=Nc2cc(C(=O)NCc3ccco3)ccc2Sc2ccc(C)cc21 | 12.4% |

| Compound | hERG current change (%, negative = inhibition) at 1uM |
| --- | --- |
| COc1ccc(CNc2nc(NCc3ccc(OC)cc3)n(C(=O)c3ccccc3[N+](=O)[O-])n2)cc1 | -0.736% |
| COc1ccc(C(=O)CCC(=O)N2CCN(c3ccc(N4CCOCC4)nn3)CC2)cc1 | 1.27% |
| CCN(CC)S(=O)(=O)c1ccc(Cl)c(NC(=O)COC(=O)/C=C/c2ccc(O)c(OC)c2)c1 | 0.792% |
| COc1cccc(NC(=S)Nc2cccnc2)c1 | 4.79% |
| CCC(Sc1nc2ccccc2o1)C(=O)Nc1nnc(C)s1 (stereo not drawn) | -6.09% |
| CCN(C(=S)NC(=O)c1ccccc1Br)C1CCCCC1 | 12.6% |
| C#CCNC(=O)C1=C[C@H](c2ccc3c(c2)OCO3)[C@@H](CCCO)[C@H](OCC)O1 | 10.9% |
| Cc1nn(Cc2ccc(Cl)cc2)c2sc(C(=O)O)cc12 | 17.5% |
| N#CC1=C(N)Oc2cc(O)ccc2C1c1ccncc1 (stereo not drawn) | 12.3% |
| CCCC(=O)Nc1cc(C)c2c(=O)oc3ccccc3c2n1 | 12.4% |
| Cc1ccc(S(=O)(=O)N2CCCCC2)cc1NC(=O)CNc1ccccc1N1CCCC1=O | 5.66% |
| Cc1ccc(C)c(NC(=O)CSc2nnc(-c3cc(C)[nH]n3)n2N)c1 | 2.68% |
| O=C(c1ccncc1)N1N=C2CCCCCC2C1(O)C(F)(F)F (stereo not drawn) | 6.66% |
| O=C(Cc1ccc(F)cc1)OCN1C(=O)c2ccccc2C1=O | 8.23% |
| O=C1CCCC(O)=C1C=Nc1ccc2c(c1)oc1ccccc12 | 14.6% |
| FC(F)(F)c1cnc(-c2cnc(-c3cccnc3)nc2)c(Cl)c1 | 11.2% |
| Cc1ccc(OCC(=O)OCC(=O)c2cccc([N+](=O)[O-])c2)cc1C | 0.885% |
| COc1ccc(NC(=O)Cn2nnc(C(=O)NCc3ccc(C)cc3)c2N)cc1Cl | 11.4% |
| CCN1CCN(CC(=O)N2c3ccccc3CC2C)CC1.O=C(O)C(=O)O (stereo not drawn) | 14.3% |
| COc1ccc(C(=O)Oc2cccc(Nc3ncnc4ccccc34)c2)cc1OC | 12.1% |
| COc1ccc(CCNC(=O)COC(=O)c2cnc(C)cn2)cc1OC | 16.7% |
